115 sequences from the BET-seq Pho4 binding data (Le et al. 2018) can be followed below.

Some of the results follow. These are noisy estimates, calculated here from bound and input reads.

The experiment deals with T1, Pho4 (S. cerevisiae) (UniProt P07270).
T1 sequence: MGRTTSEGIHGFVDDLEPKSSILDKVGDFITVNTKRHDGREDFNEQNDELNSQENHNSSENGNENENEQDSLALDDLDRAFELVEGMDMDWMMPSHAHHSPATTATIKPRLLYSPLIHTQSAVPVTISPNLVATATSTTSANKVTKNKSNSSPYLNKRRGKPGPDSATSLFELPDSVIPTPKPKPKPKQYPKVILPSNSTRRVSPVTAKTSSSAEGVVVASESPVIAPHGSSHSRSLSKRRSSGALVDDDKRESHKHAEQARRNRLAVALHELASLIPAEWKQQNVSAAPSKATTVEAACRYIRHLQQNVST
The experiment is described as follows: relative binding free energy (BET-seq); higher = weaker binding. As to conditions: reference: library average.
As for GGGAGCACGTGGGGTA, the “relative binding free energy” value is -0.16 kcal/mol.

TTCTTCACGTGTGTGA: the “relative binding free energy” value turned out to be 0.43 kcal/mol.

GTTCACACGTGTGCGT: the “relative binding free energy” value worked out at 0.17 kcal/mol.

Turning to TTTAGCACGTGAGGCG, the “relative binding free energy” value was determined as 0.04 kcal/mol.

On to TTTGACACGTGGGCGA, for which the “relative binding free energy” value was -0.13 kcal/mol.

Take GTTATCACGTGCTTTT: the “relative binding free energy” value was determined as 0.22 kcal/mol.

Turning to TATAGCACGTGGTTAT, the “relative binding free energy” value was -0.14 kcal/mol.

TGGCGCACGTGGTTGT: the “relative binding free energy” value is -0.21 kcal/mol.

For AAATGCACGTGAGTTT, the “relative binding free energy” value was found to be 0.11 kcal/mol.

Consider AATGGCACGTGTGGAG, for which the “relative binding free energy” value is -0.03 kcal/mol.

With ATTTGCACGTGGTGGC, the “relative binding free energy” value was -0.06 kcal/mol.

ATGGGCACGTGTCTAT: the “relative binding free energy” value is -0.25 kcal/mol.

For the sequence AGTTTCACGTGTTGTC, the “relative binding free energy” value is 0.26 kcal/mol.

Consider TTTCGCACGTGAAGTG, for which the “relative binding free energy” value is 0.18 kcal/mol.

Take CAGTTCACGTGGGCGA: the “relative binding free energy” value is 0.21 kcal/mol.

Consider TATATCACGTGGGTGG, for which the “relative binding free energy” value turned out to be 0.03 kcal/mol.

TGGTGCACGTGTACTG: the “relative binding free energy” value was -0.02 kcal/mol.

Regarding GGGATCACGTGATTAT, the “relative binding free energy” value turned out to be 0.21 kcal/mol.

In the case of TACTGCACGTGTTGAG, the “relative binding free energy” value was -0.03 kcal/mol.

With AACTTCACGTGGTTTG, the “relative binding free energy” value worked out at 0.19 kcal/mol.

Consider TGAGTCACGTGCTTAG, for which the “relative binding free energy” value was 0.21 kcal/mol.

For the sequence TGACGCACGTGGAGGA, the “relative binding free energy” value is -0.1 kcal/mol.

For ACTGGCACGTGGTGGG, the “relative binding free energy” value is -0.2 kcal/mol.

With GATTTCACGTGTCAGG, the “relative binding free energy” value was 0.3 kcal/mol.

Turning to TTAATCACGTGTATGC, the “relative binding free energy” value was 0.03 kcal/mol.

Take ATATTCACGTGGGTCA: the “relative binding free energy” value was determined as 0.08 kcal/mol.

With TTTGCCACGTGGTTCG, the “relative binding free energy” value is -0.03 kcal/mol.

As to TTATTCACGTGTCGTT, the “relative binding free energy” value stood at 0.31 kcal/mol.

For GGTAACACGTGAGGCG, the “relative binding free energy” value amounted to 0.38 kcal/mol.

Regarding TGTGCCACGTGTGAGA, the “relative binding free energy” value worked out at 0.01 kcal/mol.

For ATTGGCACGTGGTTTT, the “relative binding free energy” value is -0.09 kcal/mol.

As to GCCTGCACGTGAAGGG, the “relative binding free energy” value was 0.32 kcal/mol.

Regarding GTATGCACGTGCGGAT, the “relative binding free energy” value is -0.01 kcal/mol.

On to TCTCGCACGTGGAGGG, for which the “relative binding free energy” value is -0.11 kcal/mol.

With TGCGTCACGTGGGTAT, the “relative binding free energy” value was -0.13 kcal/mol.

Turning to GGTTGCACGTGACGGC, the “relative binding free energy” value turned out to be 0.11 kcal/mol.

As to TTCTTCACGTGCTGTT, the “relative binding free energy” value came to 0.14 kcal/mol.

Turning to GTGCTCACGTGGTCGG, the “relative binding free energy” value was 0.05 kcal/mol.

In the case of TATGGCACGTGCTATG, the “relative binding free energy” value was -0.24 kcal/mol.

Regarding GTGATCACGTGTAGAA, the “relative binding free energy” value turned out to be 0.23 kcal/mol.

In the case of AATGCCACGTGTTGGG, the “relative binding free energy” value came to 0 kcal/mol.

Consider GTAAACACGTGTTTAA, for which the “relative binding free energy” value turned out to be 0.08 kcal/mol.

As to AGCTACACGTGTAGTT, the “relative binding free energy” value was determined as 0.16 kcal/mol.

As to TTAGTCACGTGATAGA, the “relative binding free energy” value worked out at 0.33 kcal/mol.

GGTACCACGTGTAGGT: the “relative binding free energy” value was 0.12 kcal/mol.

As to GGGGACACGTGAAGGC, the “relative binding free energy” value came to 0.28 kcal/mol.

Take TGACTCACGTGATGTG: the “relative binding free energy” value was 0.2 kcal/mol.

Consider ACAGGCACGTGTTGTT, for which the “relative binding free energy” value is -0.12 kcal/mol.

As for ATCGACACGTGTTGGG, the “relative binding free energy” value turned out to be 0.07 kcal/mol.

Regarding GGTACCACGTGGCGTG, the “relative binding free energy” value was -0.14 kcal/mol.

Turning to TTCTTCACGTGTAGTG, the “relative binding free energy” value came to 0.22 kcal/mol.

Take GGCAGCACGTGGTGGT: the “relative binding free energy” value was -0.02 kcal/mol.

On to CGGTTCACGTGTTTAA, for which the “relative binding free energy” value was found to be 0.37 kcal/mol.

With CGGGACACGTGGGTGC, the “relative binding free energy” value is -0.2 kcal/mol.

As to TTAATCACGTGCGTGG, the “relative binding free energy” value was 0.17 kcal/mol.

For GATGGCACGTGGAAAA, the “relative binding free energy” value was 0.25 kcal/mol.

Take TGAATCACGTGTGACG: the “relative binding free energy” value was determined as 0.14 kcal/mol.

GGGCGCACGTGCGGAA: the “relative binding free energy” value is -0.05 kcal/mol.

Turning to AGGGTCACGTGATATA, the “relative binding free energy” value came out at 0.15 kcal/mol.

TTATTCACGTGAAATG: the “relative binding free energy” value was found to be 0.3 kcal/mol.

As for GGTGGCACGTGAGAGA, the “relative binding free energy” value is 0.18 kcal/mol.

Regarding TAATACACGTGCTGGT, the “relative binding free energy” value was -0.01 kcal/mol.

Turning to ATGTACACGTGTGCAA, the “relative binding free energy” value was 0.26 kcal/mol.

Take TAGGCCACGTGTTTTG: the “relative binding free energy” value stood at 0.02 kcal/mol.

In the case of GTTAACACGTGGAGAG, the “relative binding free energy” value was 0.1 kcal/mol.

ACTGTCACGTGATTTT: the “relative binding free energy” value is 0.26 kcal/mol.

On to CTCTTCACGTGGTGTT, for which the “relative binding free energy” value worked out at 0.08 kcal/mol.

In the case of AAATTCACGTGGGTAT, the “relative binding free energy” value was found to be 0.16 kcal/mol.

Turning to GTTATCACGTGGGGTT, the “relative binding free energy” value turned out to be 0.14 kcal/mol.

Turning to ATTGACACGTGGGCAT, the “relative binding free energy” value was -0.22 kcal/mol.

Turning to CCTTGCACGTGGTTTT, the “relative binding free energy” value is -0.14 kcal/mol.

With CTATTCACGTGCGTGT, the “relative binding free energy” value came to 0.18 kcal/mol.

Take TTGTGCACGTGATACT: the “relative binding free energy” value amounted to 0 kcal/mol.

As to TTTTACACGTGGAGCT, the “relative binding free energy” value worked out at 0.02 kcal/mol.

In the case of TAGCGCACGTGAGTGA, the “relative binding free energy” value was 0.15 kcal/mol.

Take CTGGTCACGTGAATGG: the “relative binding free energy” value came to 0.41 kcal/mol.

As for AGTAACACGTGTTTGT, the “relative binding free energy” value is -0.11 kcal/mol.

Consider AGTCGCACGTGTGGTG, for which the “relative binding free energy” value amounted to 0.13 kcal/mol.

Turning to CGTTCCACGTGGTAGG, the “relative binding free energy” value was -0.03 kcal/mol.

For the sequence TGTTTCACGTGCAGTG, the “relative binding free energy” value came out at 0.26 kcal/mol.

TACGTCACGTGTGGTT: the “relative binding free energy” value was found to be 0.09 kcal/mol.

In the case of GGCGGCACGTGGGGGG, the “relative binding free energy” value is -0.19 kcal/mol.

Consider GGCCGCACGTGGGTGA, for which the “relative binding free energy” value is -0.19 kcal/mol.

For the sequence TGCGGCACGTGACTGT, the “relative binding free energy” value is -0.06 kcal/mol.

As to AATAGCACGTGATTTG, the “relative binding free energy” value is -0.05 kcal/mol.

Regarding CGGTGCACGTGCGCGT, the “relative binding free energy” value is -0.1 kcal/mol.

Take AGTATCACGTGGTGAT: the “relative binding free energy” value was -0.02 kcal/mol.

With CTGGACACGTGAGATT, the “relative binding free energy” value amounted to 0.4 kcal/mol.

TTTTCCACGTGGTAGG: the “relative binding free energy” value was found to be 0.03 kcal/mol.

On to CTTTGCACGTGGCGTA, for which the “relative binding free energy” value is -0.05 kcal/mol.

Consider TGACGCACGTGGCATT, for which the “relative binding free energy” value was 0.07 kcal/mol.

On to CGTGGCACGTGACGGA, for which the “relative binding free energy” value worked out at 0.16 kcal/mol.

As for GATTCCACGTGTGTGG, the “relative binding free energy” value was 0.23 kcal/mol.

As for GTTGCCACGTGTAGTT, the “relative binding free energy” value was 0.08 kcal/mol.

Take GGACTCACGTGGTATT: the “relative binding free energy” value amounted to 0.1 kcal/mol.

For the sequence TGTATCACGTGGAGCG, the “relative binding free energy” value came to 0.14 kcal/mol.

With CTGGACACGTGGTTAT, the “relative binding free energy” value amounted to 0.02 kcal/mol.

In the case of CGTTTCACGTGGGCGT, the “relative binding free energy” value was found to be 0.29 kcal/mol.

GCCGGCACGTGTTGGG: the “relative binding free energy” value was 0.02 kcal/mol.

For the sequence GTTCACACGTGAGTGG, the “relative binding free energy” value was determined as 0.26 kcal/mol.

In the case of TTGAACACGTGTATCG, the “relative binding free energy” value stood at 0.14 kcal/mol.

Take TAGTGCACGTGTACCG: the “relative binding free energy” value stood at 0.09 kcal/mol.

For the sequence CTAGACACGTGATGGG, the “relative binding free energy” value was determined as 0.22 kcal/mol.

For AAGGGCACGTGGTTAT, the “relative binding free energy” value was -0.21 kcal/mol.

For the sequence CTTGGCACGTGTTTTA, the “relative binding free energy” value was -0.1 kcal/mol.

Regarding GGTGTCACGTGGTTAG, the “relative binding free energy” value turned out to be 0.07 kcal/mol.

For the sequence ATCATCACGTGTGGGG, the “relative binding free energy” value turned out to be 0.13 kcal/mol.

In the case of TGTATCACGTGTTCGC, the “relative binding free energy” value came out at 0.19 kcal/mol.

As to CACTGCACGTGGGGGG, the “relative binding free energy” value was -0.29 kcal/mol.

As for TTGGTCACGTGTTTGA, the “relative binding free energy” value turned out to be 0.09 kcal/mol.

On to GGTTGCACGTGATGTT, for which the “relative binding free energy” value stood at 0.24 kcal/mol.

For TAAGTCACGTGATAGT, the “relative binding free energy” value worked out at 0.18 kcal/mol.

Consider GGTTTCACGTGGCGAG, for which the “relative binding free energy” value stood at 0.34 kcal/mol.

GTATTCACGTGGTGCT: the “relative binding free energy” value came to 0.2 kcal/mol.

As for TTTTGCACGTGATGAC, the “relative binding free energy” value came to 0.17 kcal/mol.
